# Experimental data taken from PubChem BioAssay AID1645887 (National Center for Advancing Translational Sciences (NCATS), 2021).
# “And” between values parts separate entries of the source, which are not always exact repeats. Equal values may be shown once. Hit rate of the full screen: of about 16,000 compounds, about 40 (0.2%) were called active. Another 1% or so got no clear call; they are omitted. The call rests on the fitted dose curve; in most records, active means well fitted activation curve with a large enough effect; inconclusive means small, poorly fitted or top-dose-only effect, or another doubt; inactive means no such curve, though single readings can be large or run the other way. The list shows a part of the results.
# Molecular target: Rap guanine nucleotide exchange factor 4 (Homo sapiens) (UniProt Q8WZA2)
# Chain of UniProt Q8WZA2 (Q8WZA2 whole entry, looked up): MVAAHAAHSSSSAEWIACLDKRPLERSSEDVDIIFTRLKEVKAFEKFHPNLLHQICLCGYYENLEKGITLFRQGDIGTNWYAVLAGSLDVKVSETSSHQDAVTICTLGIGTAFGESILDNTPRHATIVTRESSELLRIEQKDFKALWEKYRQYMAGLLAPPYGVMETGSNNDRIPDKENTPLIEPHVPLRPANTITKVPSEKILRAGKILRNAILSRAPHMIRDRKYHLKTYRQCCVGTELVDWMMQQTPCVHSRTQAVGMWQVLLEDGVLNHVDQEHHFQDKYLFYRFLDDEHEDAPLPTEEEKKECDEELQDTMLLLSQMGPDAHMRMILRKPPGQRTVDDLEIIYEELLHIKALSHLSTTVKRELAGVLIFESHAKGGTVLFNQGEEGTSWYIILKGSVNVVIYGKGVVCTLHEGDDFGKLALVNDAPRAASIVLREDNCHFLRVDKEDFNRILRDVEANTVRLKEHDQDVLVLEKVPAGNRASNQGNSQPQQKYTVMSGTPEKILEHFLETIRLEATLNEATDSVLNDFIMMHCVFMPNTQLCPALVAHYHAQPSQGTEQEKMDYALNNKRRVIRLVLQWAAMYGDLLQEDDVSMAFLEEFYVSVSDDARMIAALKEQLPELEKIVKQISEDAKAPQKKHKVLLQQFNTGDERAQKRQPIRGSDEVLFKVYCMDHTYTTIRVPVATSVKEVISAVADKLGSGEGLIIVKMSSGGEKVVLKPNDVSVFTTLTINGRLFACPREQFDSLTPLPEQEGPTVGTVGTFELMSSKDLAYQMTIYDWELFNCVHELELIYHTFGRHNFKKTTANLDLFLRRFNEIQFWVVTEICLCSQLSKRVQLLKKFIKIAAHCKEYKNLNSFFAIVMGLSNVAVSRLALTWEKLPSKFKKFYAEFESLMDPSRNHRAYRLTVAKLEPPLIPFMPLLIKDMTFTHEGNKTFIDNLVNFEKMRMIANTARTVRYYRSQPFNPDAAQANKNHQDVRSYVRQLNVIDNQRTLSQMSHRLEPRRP
# Test: Validation qHTS for agonist of cAMP-regulated guanine nucleotide exchange factor 4 (EPAC2);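 further: exchange makes BODIPY-GDP fluorescence drop when released from Rap1B; series mostly up to about 150 µM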
# Conditions: EPAC2 Rap1B BODIPY-GDP exchange, fluorescence; activation: stronger effect = higher value
# Summary of the method: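 Fluorescent exchange assay: 100 nM EPAC2 with 250 nM RAP1B-BODIPY-GDP and 50 uM GDP; compound added, 5 min at room temperature, then read (ex 480/em 540 nm) every 5 min for 30 min. Normalized to 6.5 mM cAMP agonist control.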
# On the % scale 0 is the no-effect control and ±100 the full control effect.
row,SMILES,activation
1,O=c1ccc2[nH]cc(C3=CCNCC3)c2[nH]1,inactive: -17.9%
2,C=CCN1CC[C@]23CCCC[C@H]2[C@H]1Cc1ccc(O)cc13,inactive: -13.4%
3,c1ccc(N2CC[C@@]3(CCCNC3)C2)cc1,inactive: -3.95%
4,FC(F)(F)c1cccc(C2=CCN(CCc3ccc4ccccc4c3)CC2)c1,inactive: 7.11%
5,CC(C)c1ccc2c(c1O)CCC1C3=C(CC[C@]21C)C(=O)OC3 (stereo partly drawn),inactive: -28.4%
6,ClC1=C(Cl)C2(Cl)C(CBr)CC1(Cl)C2(Cl)Cl (stereo not drawn),inactive: -1.27%
7,CC(=O)[O][Hg][c]1ccccc1,inactive: -13.9%
8,CC(=O)Oc1ccc2c3c1O[C@H]1[C@@H](OC(C)=O)C=C[C@H]4[C@@H](C2)N(C)CC[C@@]341,inactive: -7.42% and inactive: 2.91%
9,CC(=O)O[C@H]1C[C@H](O[C@H]2[C@@H](O)C[C@H](O[C@H]3[C@@H](O)C[C@H](OC4CC[C@@]5(C)C(CC[C@@H]6[C@@H]5CC[C@]5(C)[C@@H](C7=CC(=O)OC7)[C@@H](O)C[C@]65O)C4)O[C@@H]3C)O[C@@H]2C)O[C@H](C)[C@H]1O[C@@H]1O[C@H](CO)[C@@H](O)[C@H](O)[C@H]1O (stereo partly drawn),inactive: -6.67%
10,CCN(CCO)CCn1c(Cc2ccccc2)nc2c1c(=O)n(C)c(=O)n2C,inactive: 5.03%
11,NCC[C@H](O)C(=O)N[C@@H]1C[C@H](N)[C@@H](O[C@H]2O[C@H](CN)[C@@H](O)[C@H](O)[C@H]2N)[C@H](O[C@@H]2O[C@H](CO)[C@@H](O)[C@H]2O)[C@H]1O,inactive: -6.38%
12,C=CCOC(Cn1ccnc1)c1ccc(Cl)cc1Cl (stereo not drawn),inactive: -21.4%
13,CC(=O)Nc1cc([As](=O)(O)O)ccc1O,inactive: 7.36%
14,O=C(O)/C=C/CO,inactive: -6.7% and inactive: -11.7%
15,CCCN1CC[C@@H]2c3cc(O)ccc3CC[C@@H]21,inactive: -18.1%
16,NC(=NCc1ccc(Cl)cc1)SCCCc1cnc[nH]1,inactive: -19%
17,COc1ccc2c3c1O[C@H]1C(=O)CC[C@H]4[C@@H](C2)N(C)CC[C@]314,inactive: 3.3%
18,COc1c(CC=C(C)C)c2c(c3oc(=O)c(-c4ccc(O)cc4)c(O)c13)C=CC(C)(C)O2,inactive: -10.8%
19,c1csc(CN2CC3(CCNCC3)C2)n1,inactive: -21.3%
20,C=C[C@H]1CN2CC[C@H]1C[C@H]2c1[nH]c2ccccc2c1CCO,inactive: 2.57%
21,C#CCN(C)[C@H](C)Cc1ccccc1,inactive: -5.95% and inactive: -0.841% and inactive: -6.72%
22,O=C(Nc1ccc(Br)cc1)c1cc(Br)cc(Br)c1O,inactive: -15%

row,SMILES,activation
1,COc1cc(C[C@H](C)N)c(OC)cc1C,inactive: -8.61%
2,c1ccc(CCN2CCCCC2)cc1,inactive: -21.1%
3,NCCc1ccccc1,inactive: -2.88%
4,C[C@@H]1O[C@@H](O[C@@H]2C=C3CC[C@@H]4[C@H](CC[C@]5(C)[C@@H](c6ccc(=O)oc6)CC[C@]45O)[C@@]3(C)CC2)[C@H](O)[C@H](O)[C@H]1O,inactive: -5.39%
5,CNCC/C=C\c1cccnc1,inactive: -12.1%
6,CCc1c(C(=O)OC)ncc2[nH]c3cc(OC)c(OC)cc3c12,inactive: -3.11%
7,O[C@@H]1CCCN2C[C@@H](O)[C@@H](O)C12 (stereo partly drawn),inactive: -1.66%
8,O=C1Nc2ccc(Cl)cc2C(c2ccccc2)=NC1O (stereo not drawn),inactive: -9.49% and inactive: -7.92%
9,COc1ccc2c(c1)[C@@]13CCCCC1[C@@H](C2)N(C)CC3 (stereo partly drawn),inactive: 2.88%
10,CC(N)c1cccc(Cl)c1Cl (stereo not drawn),inactive: -6.34%
11,CC(C)(O)[C@@H]1C2OC(=O)[C@@H]1[C@]1(O)C[C@H]3O[C@]34C(=O)O[C@H]2[C@]14C,inactive: -6.02%
12,Cc1noc(C)c1C(=O)N1CCC[C@@]2(CCN(CC(C)C)C2)C1,inactive: -14.3%
13,C=C1C2C[C@]3(C4CC5[C@@]6(C)CC[C@H](O)[C@@]5(C3CC2=O)C4[N+]([O-])(CC)C6)[C@@H]1O (stereo partly drawn),inactive: -15.8%
14,COc1ccc2[nH]c3c(c2c1)CCNC3C (stereo not drawn),inactive: 6.15%
15,COc1ccc(C(CN(C)C)C2(O)CCCCC2)cc1 (stereo not drawn),inactive: -16.7% and inactive: -27.9%
16,CCCSc1cc(OC)c(CCN)cc1OC,inactive: -9.14%
17,CN1CC[C@@]2(CCCN(C(=O)c3csnn3)C2)C1,inactive: -14.9%
18,CCN(CCCl)Cc1ccccc1Br,inactive: -34.3%
19,C[N+]1(C)[C@@H]2CC[C@H]1CC(OC(=O)c1c[nH]c3ccccc13)C2 (stereo partly drawn),inactive: -9.27%
20,Cc1o[nH]c(=O)c1CC(N)C(=O)O (stereo not drawn),inactive: -17.5%
21,NC(Cc1ccc(N(CCCl)CCCl)cc1)C(=O)O (stereo not drawn),inactive: -4.68% and inactive: -17.5%
22,CC1(C)C(C(Cl)Cl)C2(Cl)C(Cl)C(Cl)C1(Cl)C2(Cl)Cl (stereo not drawn),inactive: -2.28%

row,SMILES,activation
1,C/C=C1/CN2CC[C@]34C(=C(C=O)[C@H]1C[C@@H]23)Nc1ccccc14,inactive: -5.48%
2,CCN(CC)CCOC(=O)C(O)(c1ccccc1)c1ccccc1,inactive: -14.2%
3,N[C@H](CCP(=O)(O)O)C(=O)O,inactive: -1.18% and inactive: 9.83%
4,CC(C)(C)OC(=O)c1ncn2c1[C@@H]1CCCN1C(=O)c1c(Br)cccc1-2,inactive: 8.19%
5,OC(c1ccccc1)(c1ccccc1)C1CN2CCC1CC2 (stereo not drawn),inactive: -24.9%
6,NP(N)(=O)NC(=O)c1ccc(F)cc1,inactive: -18.3%
7,O=C(C[C@@H]1NCCC[C@H]1O)Cn1cnc2cc(Br)c(Cl)cc2c1=O,inactive: -11%
8,CC[n+]1c(-c2ccccc2)c2cc(N)ccc2c2ccc(N)cc21,inactive: -1.34% and inactive: 17.4%
9,N[C@H](CP(=O)(O)O)C(=O)O,inactive: -9.91%
10,C[C@]12CC[C@H]3[C@@H](C[C@H](F)C4=CC(=O)CC[C@@]43C)[C@@H]1CC[C@@H]2O,inactive: -9.66%
11,Oc1ccc2c3c1O[C@H]1c4oc5ccccc5c4C[C@@]4(O)C(C2)N(CC2CC2)CCC314 (stereo partly drawn),inactive: -20.4%
12,COc1cc2c(cc1OC)[C@@H]1C(=O)c3ccc(OC)c(CC=C(C)C)c3OC1CO2 (stereo partly drawn),inactive: -16.7%
13,CCCCC1C(=O)NC(=O)N(C2CCCCC2)C1=O (stereo not drawn),inactive: -20.5%
14,COc1ccc(C(=O)O)cc1OC,inactive: -16.7%
15,COc1ccc2[nH]cc(C3=CCNCC3)c2c1,inactive: -16.8% and inactive: -4.47%
16,C(=C/c1ccccc1)/CN1CCN(CCOC(c2ccccc2)c2ccccc2)CC1,inactive: -25.9%
17,NCC(=O)c1ccccc1,inactive: -19.6%
18,Clc1ccc(C(Cn2ccnc2)OCc2csc3c(Cl)cccc23)c(Cl)c1 (stereo not drawn),inactive: 0.0963%
19,CCOC(=O)c1ncn2c1CN(C)C(=O)c1c(I)cccc1-2,inactive: -28.4%
20,O=C(Nc1ccccc1)N1CC[C@@]2(CCCN(C(=O)Oc3ccccc3)C2)C1,inactive: 2.28%
21,O=C(O)Cc1ccccc1,inactive: -8.91%
22,ClC(Cl)(Cl)Cl,inactive: -7.71%

row,SMILES,activation
1,Clc1cccc(SC2CCNCC2)n1,inactive: -20.4% and inactive: -10.4%
2,CCNC(=O)[C@@H]1O[C@@H](n2cnc3c(N)ncnc32)[C@H](O)[C@H]1O,inactive: -13.5%
3,O=C(O)[C@H]1[C@H]2CN[C@H](C(=O)O)[C@H]21,inactive: -11.4% and inactive: 8.11%
4,COc1ccc(C(=O)c2c(C)n(CCN3CCOCC3)c3ccccc23)cc1,inactive: -11.4%
5,CNC(=O)OCC[N+](C)(C)C,inactive: 0.434%
6,CN1C(=O)[C@@H](NC(=O)c2cc3ccccc3[nH]2)N=C(c2ccccc2)c2ccccc21,inactive: 8.25%
7,c1cc2c(c(N3CCNCC3)c1)OCCO2,inactive: -19.3%
8,CC1(C)C(=O)[C@@H]2OC2[C@@]2(C)C1CC(O)[C@]1(C)C2CC[C@@]2(C)C(c3ccoc3)OC(=O)C3OC312 (stereo partly drawn),inactive: -14%
9,O=c1c(O)c(-c2ccc(O)c(O)c2)oc2c(O)c(O)cc(O)c12,inactive: -5.57%
10,CC1=C(O)C(=O)[C@H]2O[C@@H]2C1=O,inactive: -11.6%
11,O=C(c1csnn1)N1CCC[C@@]2(CCN(Cc3ccncc3)C2)C1,inactive: -28.1%
12,CCNCC(O)c1cccc(O)c1 (stereo not drawn),inactive: -7.06%
13,O=C(CS(=O)C(c1ccccc1)c1ccccc1)NO (stereo not drawn),inactive: -8.15%
14,CCOC(=O)[C@]12Cc3cc(N(C)C)ccc3[C@H]1N(Cc1ccccc1)C(=O)c1ccccc12,inactive: -6.96%
15,CN1CCc2cc3c(cc2C1O)OCO3 (stereo not drawn),inactive: -1.21%
16,CP(=O)(O)CCCN,inactive: -14.8% and inactive: -5.67%
17,C[C@@]12CCC(O)C[C@H]1CCC1C2CC[C@]2(C)C(=O)CCC12 (stereo partly drawn),inactive: 0.289%
18,COc1cc2c(cc1O)-c1c(O)c(OC)cc3c1[C@H](C2)N(C)CC3,inactive: 8.4%
19,COC1=CC23CCCN2CCc2cc4c(cc2C3C1O)OCO4 (stereo not drawn),inactive: -0.996%
20,CC(n1cc(C[C@H](N)C(=O)O)c2ccccc21)n1cc(C[C@H](N)C(=O)O)c2ccccc21,inactive: -7.56%
21,C[C@H]1CC[C@@H]2N(C1)C[C@H]1[C@@H]3C[C@H]4[C@@H](CC(=O)[C@H]5C[C@@H](O)CC[C@@]54C)[C@@H]3CC[C@H]1[C@]2(C)O,inactive: 4.31%
22,CC(C)NCC(O)c1ccc(N)c(C#N)c1 (stereo not drawn),inactive: -0.359% and inactive: 11.4%
